This is one part of the list. Cut-off read from the data, not from the text of the source: active = 3.2 or more and inactive = the rest. Most of these values are background signal.
molecular target: SHP2 C-SH2 domain E139D; assay: enrichment score (SH2-bound / input frequency) (ratio); bacterial display of known human phosphotyrosine sites (pTyr-Var adds point mutants) read by sequencing; higher = stronger binding; tyrosines were phosphorylated by kinases first; conditions: peptide library: pTyr-Var
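Note: displayed peptides selected on beads carrying the immobilized SH2 domain, with library peptides lacking any tyrosine serving as negative controls.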

Enrichment score, inactive:
NDQANYSLNTD [ADA_Y290] 0.639
IRRIAYEFVEM [ADA_Y84_K80R] 1.07
RPASQYPHQVP [ADAM12_Y895_P893S] 0.758
CSHMFYGKQCC [ADAMTS16_Y1211_K1209M] 1.27
KANEYYPVVLI [ADAMTS18_Y765] 0.613
KANEFYPVVII [ADAMTS18_Y765_L769I_YF] 0.317
SPQAHYRLSAF [ADAMTS9_Y100_S96P] 0.825
ENEGTYVCIAT [ADAMTSL3_Y1365] 0.943
ENEGTYVCIAA [ADAMTSL3_Y1365_T1370A] 0.831
TIQDAYMHITS [ADCY10_Y318_A313T] 0.972
NTPNAYLRVNV [ADD2_Y440_T439A] 0.936
AGITAYQSCLQ [ADGRA2_Y377] 0.845
EGLKVYVNGTL [ADGRD1_Y183] 0.679
KGLKVYVNGTL [ADGRD1_Y183_E178K] 1.36
LSSISYVGCSL [ADGRD1_Y571] 0.771
LLSISYVGCSL [ADGRD1_Y571_S567L] 1.79
GVTLLYYGRYN [ADGRD1_Y85] 1.62
GVMLLYYGRYN [ADGRD1_Y85_T82M] 2.03
GVMLLYFGRFN [ADGRD1_Y85_T82M_YF] 1.64

molecular target: SHP2 C-SH2 domain wild-type; assay: as above; conditions: peptide library: pTyr-Var

Enrichment score, inactive:
NDQANYSLNTD [ADA_Y290] 0.46
IRRIAYEFVEM [ADA_Y84_K80R] 0.701
RPASQYPHQVP [ADAM12_Y895_P893S] 0.639
CSHMFYGKQCC [ADAMTS16_Y1211_K1209M] 1.58
KANEYYPVVLI [ADAMTS18_Y765] 0.533
KANEFYPVVII [ADAMTS18_Y765_L769I_YF] 0.41
SPQAHYRLSAF [ADAMTS9_Y100_S96P] 0.699
ENEGTYVCIAT [ADAMTSL3_Y1365] 1.5
ENEGTYVCIAA [ADAMTSL3_Y1365_T1370A] 1.03
TIQDAYMHITS [ADCY10_Y318_A313T] 0.624
NTPNAYLRVNV [ADD2_Y440_T439A] 1.38
AGITAYQSCLQ [ADGRA2_Y377] 1.08
EGLKVYVNGTL [ADGRD1_Y183] 0.75
KGLKVYVNGTL [ADGRD1_Y183_E178K] 1.35
LSSISYVGCSL [ADGRD1_Y571] 0.609
LLSISYVGCSL [ADGRD1_Y571_S567L] 1.58
GVTLLYYGRYN [ADGRD1_Y85] 1.13
GVMLLYYGRYN [ADGRD1_Y85_T82M] 1.86
GVMLLYFGRFN [ADGRD1_Y85_T82M_YF] 1.04

molecular target: SHP2 N-SH2 domain L43F; assay: as above; conditions: peptide library: pTyr-Var

Enrichment score, inactive:
NDQANYSLNTD [ADA_Y290] 0.533
IRRIAYEFVEM [ADA_Y84_K80R] 0.683
RPASQYPHQVP [ADAM12_Y895_P893S] 0.571
CSHMFYGKQCC [ADAMTS16_Y1211_K1209M] 1.33
KANEYYPVVLI [ADAMTS18_Y765] 0.773
KANEFYPVVII [ADAMTS18_Y765_L769I_YF] 0.608
SPQAHYRLSAF [ADAMTS9_Y100_S96P] 0.653
ENEGTYVCIAT [ADAMTSL3_Y1365] 1.26
ENEGTYVCIAA [ADAMTSL3_Y1365_T1370A] 1.13
TIQDAYMHITS [ADCY10_Y318_A313T] 0.787
NTPNAYLRVNV [ADD2_Y440_T439A] 1.28
AGITAYQSCLQ [ADGRA2_Y377] 0.745
EGLKVYVNGTL [ADGRD1_Y183] 0.651
KGLKVYVNGTL [ADGRD1_Y183_E178K] 1.43
LSSISYVGCSL [ADGRD1_Y571] 0.817
LLSISYVGCSL [ADGRD1_Y571_S567L] 1.77
GVTLLYYGRYN [ADGRD1_Y85] 1.45
GVMLLYYGRYN [ADGRD1_Y85_T82M] 2.01
GVMLLYFGRFN [ADGRD1_Y85_T82M_YF] 1.54

molecular target: SHP2 N-SH2 domain T42A; assay: as above; conditions: peptide library: pTyr-Var

Enrichment score, inactive:
NDQANYSLNTD [ADA_Y290] 0.449
IRRIAYEFVEM [ADA_Y84_K80R] 0.882
RPASQYPHQVP [ADAM12_Y895_P893S] 0.564
CSHMFYGKQCC [ADAMTS16_Y1211_K1209M] 1.43
KANEYYPVVLI [ADAMTS18_Y765] 0.646
KANEFYPVVII [ADAMTS18_Y765_L769I_YF] 0.239
SPQAHYRLSAF [ADAMTS9_Y100_S96P] 0.701
ENEGTYVCIAT [ADAMTSL3_Y1365] 0.93
ENEGTYVCIAA [ADAMTSL3_Y1365_T1370A] 0.839
TIQDAYMHITS [ADCY10_Y318_A313T] 0.679
NTPNAYLRVNV [ADD2_Y440_T439A] 2.93
AGITAYQSCLQ [ADGRA2_Y377] 0.813
EGLKVYVNGTL [ADGRD1_Y183] 0.726
KGLKVYVNGTL [ADGRD1_Y183_E178K] 1.19
LSSISYVGCSL [ADGRD1_Y571] 0.777
LLSISYVGCSL [ADGRD1_Y571_S567L] 0.939
GVTLLYYGRYN [ADGRD1_Y85] 1.23
GVMLLYYGRYN [ADGRD1_Y85_T82M] 1.73
GVMLLYFGRFN [ADGRD1_Y85_T82M_YF] 1.64

molecular target: SHP2 N-SH2 domain T52S; assay: as above; conditions: peptide library: pTyr-Var

Enrichment score, inactive:
NDQANYSLNTD [ADA_Y290] 0.457
IRRIAYEFVEM [ADA_Y84_K80R] 0.757
RPASQYPHQVP [ADAM12_Y895_P893S] 0.417
CSHMFYGKQCC [ADAMTS16_Y1211_K1209M] 1.48
KANEYYPVVLI [ADAMTS18_Y765] 0.966
KANEFYPVVII [ADAMTS18_Y765_L769I_YF] 0.346
SPQAHYRLSAF [ADAMTS9_Y100_S96P] 0.697
ENEGTYVCIAT [ADAMTSL3_Y1365] 0.653
ENEGTYVCIAA [ADAMTSL3_Y1365_T1370A] 0.92
TIQDAYMHITS [ADCY10_Y318_A313T] 0.801
NTPNAYLRVNV [ADD2_Y440_T439A] 1.35
AGITAYQSCLQ [ADGRA2_Y377] 0.594
EGLKVYVNGTL [ADGRD1_Y183] 0.77
KGLKVYVNGTL [ADGRD1_Y183_E178K] 1.19
LSSISYVGCSL [ADGRD1_Y571] 0.695
LLSISYVGCSL [ADGRD1_Y571_S567L] 2.05
GVTLLYYGRYN [ADGRD1_Y85] 1.47
GVMLLYYGRYN [ADGRD1_Y85_T82M] 2.15
GVMLLYFGRFN [ADGRD1_Y85_T82M_YF] 1.78

molecular target: SHP2 N-SH2 domain wild-type; assay: as above; conditions: peptide library: pTyr-Var

Enrichment score, inactive:
NDQANYSLNTD [ADA_Y290] 0.556
IRRIAYEFVEM [ADA_Y84_K80R] 1.02
RPASQYPHQVP [ADAM12_Y895_P893S] 0.741
CSHMFYGKQCC [ADAMTS16_Y1211_K1209M] 1.52
KANEYYPVVLI [ADAMTS18_Y765] 0.662
KANEFYPVVII [ADAMTS18_Y765_L769I_YF] 0.378
SPQAHYRLSAF [ADAMTS9_Y100_S96P] 0.702
ENEGTYVCIAT [ADAMTSL3_Y1365] 1.67
ENEGTYVCIAA [ADAMTSL3_Y1365_T1370A] 1.33
TIQDAYMHITS [ADCY10_Y318_A313T] 0.778
NTPNAYLRVNV [ADD2_Y440_T439A] 0.951
AGITAYQSCLQ [ADGRA2_Y377] 1.12
EGLKVYVNGTL [ADGRD1_Y183] 0.924
KGLKVYVNGTL [ADGRD1_Y183_E178K] 1.37
LSSISYVGCSL [ADGRD1_Y571] 0.632
LLSISYVGCSL [ADGRD1_Y571_S567L] 1.85
GVTLLYYGRYN [ADGRD1_Y85] 1.54
GVMLLYYGRYN [ADGRD1_Y85_T82M] 1.56
GVMLLYFGRFN [ADGRD1_Y85_T82M_YF] 1.19

Source: the supplement of paper PMC10369915
